# Test results from PubChem BioAssay (Tox21).
# Several values for one entry are separate records, joined by “and”; a condition that tells them apart may be missing. Equal values may be shown once. Inconclusive means that the source gave no clear call. Such entries were picked first, then a sample of the others. For part of these data: Potencies of inconclusive entries are doubtful fits and often do not repeat. More than one record can exist for a structure, and the calls need not agree. Activity calls are given as the source filed them. Unless noted, the call rests on the fitted dose curve; in most records, active means well fitted curve in the direction sought with a large enough effect in the repeat runs; inconclusive means weak or mixed curves; inactive means no such curve, though single readings can be large; an effect the other way counts as inactive or inconclusive.
# Experiments:
# [1] = molecular target: Estrogen receptor (Homo sapiens) (UniProt P03372); assay: qHTS assay to identify small molecule agonists of the estrogen receptor alpha (ER-alpha) signaling pathway using the BG1 cell line (AID 743079); conditions: BG1Luc4E2 cells, ERE-luciferase agonist, 22 h; activation: at 70.3 µM (top of the series) unless noted; further: nearly all actives have a fitted effect of over 20% in size; on activation: on the % scale 0 is the no-effect control and ±100 the full control effect
# Sequence of UniProt P03372 (P03372 whole entry, looked up): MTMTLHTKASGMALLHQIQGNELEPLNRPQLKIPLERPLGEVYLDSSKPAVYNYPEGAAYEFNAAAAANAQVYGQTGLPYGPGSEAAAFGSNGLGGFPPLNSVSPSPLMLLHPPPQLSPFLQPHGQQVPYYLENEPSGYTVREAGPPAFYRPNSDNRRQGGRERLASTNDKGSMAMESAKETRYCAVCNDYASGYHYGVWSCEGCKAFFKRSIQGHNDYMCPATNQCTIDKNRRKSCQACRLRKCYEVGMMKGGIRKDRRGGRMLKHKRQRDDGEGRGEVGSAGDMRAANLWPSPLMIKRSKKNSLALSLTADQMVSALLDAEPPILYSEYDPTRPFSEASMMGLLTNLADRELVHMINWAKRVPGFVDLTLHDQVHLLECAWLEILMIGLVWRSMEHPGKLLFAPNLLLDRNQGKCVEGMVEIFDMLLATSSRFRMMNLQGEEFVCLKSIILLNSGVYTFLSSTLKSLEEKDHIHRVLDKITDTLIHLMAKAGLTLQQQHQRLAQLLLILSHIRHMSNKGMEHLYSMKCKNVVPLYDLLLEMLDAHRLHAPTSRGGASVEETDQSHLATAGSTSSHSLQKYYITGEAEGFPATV
# [2] = molecular target: Peroxisome proliferator-activated receptor gamma (Homo sapiens) (UniProt P37231); assay: qHTS assay to identify small molecule antagonists of the peroxisome proliferator-activated receptor gamma (PPARg) signaling pathway (AID 743191; calls by dose curve; further: nearly all actives have a fitted effect of over 30% in size; on ratio activity, negative = inhibition: on the % scale 0 is the no-effect control and ±100 the full control effect); conditions: HEK293H PPARg-UAS-bla, beta-lactamase ratio, antagonist, 17 h
# Sequence of UniProt P37231 (P37231 whole entry, looked up): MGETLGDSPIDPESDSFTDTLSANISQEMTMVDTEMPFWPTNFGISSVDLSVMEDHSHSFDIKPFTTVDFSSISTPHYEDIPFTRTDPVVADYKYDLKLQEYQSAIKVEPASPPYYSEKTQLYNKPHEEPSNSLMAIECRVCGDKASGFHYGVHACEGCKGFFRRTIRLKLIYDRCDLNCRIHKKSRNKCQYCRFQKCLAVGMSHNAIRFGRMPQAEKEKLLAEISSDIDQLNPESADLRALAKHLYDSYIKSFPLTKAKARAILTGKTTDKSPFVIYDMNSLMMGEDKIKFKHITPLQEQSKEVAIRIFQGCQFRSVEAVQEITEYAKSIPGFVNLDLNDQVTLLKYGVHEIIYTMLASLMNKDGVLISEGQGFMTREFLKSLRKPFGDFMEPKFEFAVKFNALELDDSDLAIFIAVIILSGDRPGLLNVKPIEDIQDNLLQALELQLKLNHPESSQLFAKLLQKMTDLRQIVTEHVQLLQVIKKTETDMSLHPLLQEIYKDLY
# How it was run: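 GeneBLAzer PPARg UAS-bla HEK293H cells carrying a UAS-driven beta-lactamase reporter were plated at 3000 cells/well, preincubated 5 h at 37C, then given compound for 17 h at 37C; LiveBLAzer B/G FRET substrate was read after 1 h at room temperature.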
# [3] = qHTS assay to identify small molecule antagonists of the peroxisome proliferator-activated receptor gamma (PPARg) signaling pathway - cell viability counter screen (AID 743194); conditions: PPARg-bla HEK293H viability, CellTiter-Glo luminescence, 17 h, co-treated with 50 nM rosiglitazone; activity change, negative = cytotoxicity: at 62.6 µM (top of the series) unless noted; further: nearly all actives have a fitted effect of over 55% in size; on activity change, negative = cytotoxicity: on the % scale 0 is the no-effect control and ±100 the full control effect
# How it was run: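 PPARg-UAS-bla HEK293H cells were plated, rested 5 h at 37 C, then treated with compounds plus rosiglitazone (50 nM final) for 17 h at 37 C; viability was then read by CellTiter-Glo luminescence after 30 min at room temperature.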
# [4] = qHTS assay to identify small molecule antagonists of the estrogen receptor alpha (ER-alpha) signaling pathway using the BG1 cell line (AID 743080; calls by dose curve;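 further: BG1 cells stimulated with 17beta-estradiol alongside compound; nearly all actives have a fitted effect of over 25% in size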; on activity change, negative = inhibition: on the % scale 0 is the no-effect control and ±100 the full control effect); conditions: BG1Luc4E2 ERE-luciferase antagonist mode, luminescence; activity change, negative = inhibition: at 70.3 µM (top of the series) unless noted
# How it was run: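 Luciferase inhibition measured with ONE-Glo after 30 min at RT in BG1Luc4E2 cells given test compounds and 17beta-estradiol for 21.5 h at 37 C; CellTiter-Fluor viability read in the same wells beforehand.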
# [5] = qHTS assay to identify small molecule antagonists of the estrogen receptor alpha (ER-alpha) signaling pathway using the BG1 cell line - cell viability counter screen (AID 743081); conditions: BG1Luc4E2 viability, CellTiter-Fluor, 22 h; activity change, negative = cytotoxicity: at 70.3 µM (top of the series);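 further: compound given together with 17beta-estradiol as the ER stimulus; nearly all actives have a fitted effect of over 45% in size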
# [6] = qHTS assay to identify aromatase inhibitors - cell viability counter screen (AID 743084); conditions: MCF-7 aro ERE viability, CellTiter-Fluor, 24 h; activity change, negative = cytotoxicity: at 70.3 µM (top of the series);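 further: cells stimulated with testosterone during compound exposure; nearly all actives have a fitted effect of over 55% in size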
# Aromatase (Homo sapiens) = Aromatase (Homo sapiens) (UniProt P11511); assay: qHTS assay to identify aromatase inhibitors (AID 743083); conditions: MCF-7 aro ERE, testosterone-driven ERE luciferase, 24 h; activity, negative = inhibition: at 70.3 µM (top of the series); further: nearly all actives have a fitted effect of over 55% in size
# Sequence of UniProt P11511 (P11511 whole entry, looked up): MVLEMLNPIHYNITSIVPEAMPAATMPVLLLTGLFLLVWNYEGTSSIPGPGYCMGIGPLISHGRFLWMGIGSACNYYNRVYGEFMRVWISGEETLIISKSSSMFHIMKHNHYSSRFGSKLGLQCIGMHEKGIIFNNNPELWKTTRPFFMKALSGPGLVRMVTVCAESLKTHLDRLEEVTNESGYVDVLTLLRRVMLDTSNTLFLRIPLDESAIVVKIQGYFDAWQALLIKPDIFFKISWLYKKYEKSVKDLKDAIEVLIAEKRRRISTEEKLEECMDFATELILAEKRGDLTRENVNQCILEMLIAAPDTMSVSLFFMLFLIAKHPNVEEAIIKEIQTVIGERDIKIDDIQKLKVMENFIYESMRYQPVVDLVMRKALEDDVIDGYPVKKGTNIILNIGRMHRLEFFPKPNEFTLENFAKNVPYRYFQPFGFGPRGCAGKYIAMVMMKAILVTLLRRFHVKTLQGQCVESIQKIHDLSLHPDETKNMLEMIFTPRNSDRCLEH
# [7] = molecular target: Aryl hydrocarbon receptor (Homo sapiens) (UniProt P35869); assay: qHTS assay to identify small molecule that activate the aryl hydrocarbon receptor (AhR) signaling pathway (AID 743085); further: nearly all actives have a fitted effect of over 15% in size
# Sequence of UniProt P35869 (P35869 whole entry, looked up): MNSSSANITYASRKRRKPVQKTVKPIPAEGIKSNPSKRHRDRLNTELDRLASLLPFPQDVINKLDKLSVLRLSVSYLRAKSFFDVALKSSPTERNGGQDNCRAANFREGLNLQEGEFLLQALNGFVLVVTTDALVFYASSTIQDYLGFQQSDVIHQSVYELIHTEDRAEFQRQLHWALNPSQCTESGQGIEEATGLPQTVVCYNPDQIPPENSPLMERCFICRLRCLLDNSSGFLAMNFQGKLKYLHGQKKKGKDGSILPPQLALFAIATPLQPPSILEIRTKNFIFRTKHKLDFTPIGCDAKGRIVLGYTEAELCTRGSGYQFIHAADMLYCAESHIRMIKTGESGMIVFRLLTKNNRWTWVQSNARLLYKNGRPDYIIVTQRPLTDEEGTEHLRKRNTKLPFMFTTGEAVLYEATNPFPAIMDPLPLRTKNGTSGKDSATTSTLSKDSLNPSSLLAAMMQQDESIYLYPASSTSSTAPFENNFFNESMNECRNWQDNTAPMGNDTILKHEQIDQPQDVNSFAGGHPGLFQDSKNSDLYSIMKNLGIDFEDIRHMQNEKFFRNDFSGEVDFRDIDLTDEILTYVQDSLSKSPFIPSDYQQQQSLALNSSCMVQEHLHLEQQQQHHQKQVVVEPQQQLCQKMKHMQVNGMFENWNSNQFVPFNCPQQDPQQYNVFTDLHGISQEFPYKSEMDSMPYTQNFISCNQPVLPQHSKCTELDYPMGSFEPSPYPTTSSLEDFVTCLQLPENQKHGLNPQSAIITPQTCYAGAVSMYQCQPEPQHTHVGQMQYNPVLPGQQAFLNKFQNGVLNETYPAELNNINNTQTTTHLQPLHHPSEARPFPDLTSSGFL
# How it was run: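 AhR agonist activity is inferred from enhanced light output of a DRE-controlled firefly luciferase reporter in HepG2 cells, measured with ONE-Glo following 24 h treatment at 37C.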
# [8] = molecular target: Peroxisome proliferator-activated receptor gamma (Homo sapiens) (UniProt P37231); assay: qHTS assay to identify small molecule agonists of the peroxisome proliferator-activated receptor gamma (PPARg) signaling pathway (AID 743094; active means well fitted activation curve with a large enough effect in the signal ratio in the repeat runs, not every such curve was filed as active; inconclusive means weak or mixed curves, or effect the other way; inactive means no such curve, though single readings can be large or run the other way; the % refers to the signal ratio); conditions: HEK293H PPARg-UAS-bla, beta-lactamase FRET ratio, 17 h
# How it was run: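 HEK293H PPARg-bla cells, 5 h settle at 37C/5% CO2; compound (DMSO) 17 h, 37C; B/G FRET substrate 1 h RT; fluorescence intensity read-out. qHTS format.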
# [9] = qHTS assay to identify small molecule that activate the aryl hydrocarbon receptor (AhR) signaling pathway - cell viability counter screen (AID 743086); further: nearly all actives have a fitted effect of over 45% in size
# How it was run: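 HepG2-AhR-luc (HG2L7.5c1) cells, 4000/well, were preincubated 5 h at 37C, exposed to compound in qHTS format for 24 hr at 37C, then given CellTiter-Fluor for 30 min; viability was read as fluorescence in the reporter wells.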
# [10] = ratio activity, negative = inhibition: at 62.6 µM (top of the series) unless noted
# [11] = activation: at 57 µM (top of the series) unless noted
# Potency means the concentration at half of the fitted maximal effect; tags describe the fitted curve by direction and shape or compound fluorescence and quenching.
structure (smiles),measurement,setting,value
CCCCCCCCCCCCCCCCN,Potency,[1],inactive
same,Potency,[2]; [10],inconclusive: 13.3 µM [activator]
same,"activity change, negative = cytotoxicity",[3],inconclusive: 1.6% [cytotoxic]
CC(=O)C(C)C,Potency,[4],inactive
CN1CCN(C2=Nc3ccccc3Oc3ccc(Cl)cc32)CC1,Potency,[1],inactive
same,Potency,[2]; [10],"inconclusive: 18.8 µM [fluorescent, partial curve, poor fit]"
same,Potency,[3],inactive
CO[Si](CCCS)(OC)OC,Potency,[1],inactive
same,Potency,[3],inactive
NC(=O)c1ncn([C@@H]2O[C@H](CO)[C@@H](O)[C@H]2O)c1N,Potency,[4],inactive
O=C1c2ccccc2C(=O)C1c1ccc2cc(S(=O)(=O)O)cc(S(=O)(=O)O)c2n1,Potency,[4],inactive
same,Potency,[5],active: 52.5 µM
same,Potency,[6],active: 29.5 µM
same,"ratio activity, negative = inhibition",[2]; [10],inconclusive: -18.1% [at 81.1 µM]
Nc1nc2c(ncn2COC(CO)CO)c(=O)[nH]1,"activity change, negative = inhibition",[4],inconclusive: 2.14% [at 32.5 µM]
same,Potency,[5],"inconclusive: 0.254 µM [rising, full curve, poor fit]"
Cc1ccc(C(=O)Nc2ccc(S(=O)(=O)O)c3cc(S(=O)(=O)O)cc(S(=O)(=O)O)c23)cc1NC(=O)c1cccc(NC(=O)Nc2cccc(C(=O)Nc3cc(C(=O)Nc4ccc(S(=O)(=O)O)c5cc(S(=O)(=O)O)cc(S(=O)(=O)O)c45)ccc3C)c2)c1,Potency,[1],inactive
same,Potency,[2]; [10],inactive
same,Potency,[3],"inconclusive: 0.106 µM [cytotoxic, full curve, poor fit]"
OCc1ccccc1,activation,[1],inconclusive: 8.38% [phenotype inactive] and inconclusive: 5.04% [phenotype inactive]
same,Potency,[3],"inconclusive: 43.6 µM [rising, single point]"
CCCCCc1cccc(=O)o1,Potency,[1],inactive
same,Potency,[2]; [10],"inconclusive: 27.5 µM [inhibitor, partial curve]"
same,Potency,[3],inactive
C=C(C)C(=O)OCCC(C)OC(=O)C(=C)C (configuration not stated),Potency,[4],inactive
Cc1ccc(Nc2nccc(N(C)c3ccc4c(C)n(C)nc4c3)n2)cc1S(N)(=O)=O,Potency,[4],"inconclusive: 11.9 µM [falling, partial curve]"
same,Potency,[5],"inconclusive: 15 µM [cytotoxic, full curve]"
same,Potency,Aromatase (Homo sapiens),"inconclusive: 9.44 µM [inhibitor, partial curve]"
same,Potency,[6],"inconclusive: 21.1 µM [cytotoxic, partial curve]"
same,Potency,[7],"inconclusive: 0.944 µM [activator, full curve, poor fit]"
same,activation,[8]; [11],inconclusive: -18.2%
same,Potency,[2]; [10],active: 26.6 µM
same,Potency,[3],"inconclusive: 33.5 µM [cytotoxic, single point]"
O=C1CCCCCO1,Potency,[4],inactive
CCNC(=S)NCC,Potency,[1],active: 54.5 µM
same,"ratio activity, negative = inhibition",[2]; [10],inconclusive: -5.88%
same,Potency,[3],inactive
N#C[C@@H]1CC(F)(F)CN1C(=O)CNC1CC2CCC(C1)N2c1ncccn1 (some centres not stated),Potency,[5],inactive
C[N+](C)(C)CCO,"ratio activity, negative = inhibition",[2]; at 62.6 µM (top of the series),inconclusive: 2.06%
same,"ratio activity, negative = inhibition",[2]; at 81.1 µM (top of the series),inconclusive: -3.68%
CC(=O)Oc1ccc(C)cc1,Potency,[8]; [11],inactive
CCCCNc1ccc(C(=O)OCCN(C)C)cc1,Potency,[5],inactive
O=C(c1ccccc1)c1ccc2n1CCC2C(=O)O (configuration not stated),Potency,[5],"inconclusive: 13.3 µM [cytotoxic, partial curve, poor fit]"
same,Potency,[7],"inconclusive: 11.9 µM [activator, single point]"
same,activation,[8]; at 26.2 µM (top of the series),inconclusive: -0.985%
same,activation,[8]; at 57 µM (top of the series),inconclusive: 5.98%
CC(=O)Oc1cc(C(C)C)c(OCCN(C)C)cc1C,Potency,[5],"inconclusive: 14.3 µM [rising, partial curve, poor fit]"
same,Potency,[6],inactive
same,"ratio activity, negative = inhibition",[2]; [10],inconclusive: 13.4%
CC(C)=CCC[C@H](C)CCO,Potency,[5],inactive
O=C(O)c1ccccc1-c1ccc(C(F)(F)F)cc1,Potency,[5],inactive
same,Potency,[6],inactive
same,Potency,[8]; [11],inconclusive: 21.3 µM [activator]
same,"ratio activity, negative = inhibition",[2]; [10],inconclusive: -26.2%
CCCOC(C(=O)OC1CCN(C)CC1)(c1ccccc1)c1ccccc1,Potency,[5],"inconclusive: 33.5 µM [cytotoxic, partial curve, poor fit]"
same,Potency,[6],"inconclusive: 33.5 µM [cytotoxic, partial curve, poor fit]"
same,Potency,[9],active: 29.8 µM
COc1ccccc1[N+](=O)[O-],Potency,[5],"inconclusive: 0.433 µM [rising, full curve, poor fit]"
COc1cc([N+](=O)[O-])ccc1N,Potency,[5],"inconclusive: 68.6 µM [cytotoxic, partial curve]"
same,Potency,[6],"inconclusive: 54.5 µM [cytotoxic, partial curve]"
same,"ratio activity, negative = inhibition",[2]; [10],inconclusive: -23.6%
same,Potency,[3],"inconclusive: 11 µM [cytotoxic, full curve, poor fit]"
CC(=O)c1ccc2c(c1)N(CCCN1CCC(CCO)CC1)c1ccccc1S2,Potency,[5],"inconclusive: 0.0507 µM [rising, single point]"
same,Potency,Aromatase (Homo sapiens),inactive
C=C(C)C(=O)OCCOCC,Potency,[5],inactive
same,Potency,[6],inactive
same,Potency,[8]; [11],inactive
same,"ratio activity, negative = inhibition",[2]; [10],inconclusive: -2.01% [at 81.1 µM]
O=C(O)c1cc(N=Nc2ccc(S(=O)(=O)Nc3ccccn3)cc2)ccc1O,Potency,[5],"inconclusive: 29.8 µM [cytotoxic, single point] and active: 34.5 µM and inconclusive: 30.6 µM [cytotoxic]"
same,Potency,[6],"inconclusive: 33.5 µM [cytotoxic, single point] and active: 34.5 µM and active: 30.6 µM"
same,Potency,[9],active: 27.4 µM and active: 30.6 µM
same,Potency,[2]; [10],inactive
